Measured values as given in the GPR68 mutational scans of Howard et al. (2025).

B1: GPR68, Q15743 (parent)
chain: MGNITADNSSMSCTIDHTIHQTLAPVVYVTVLVVGFPANCLSLYFGYLQIKARNELGVYLCNLTVADLFYICSLPFWLQYVLQHDNWSHGDLSCQVCGILLYENIYISVGFLCCISVDRYLAVAHPFRFHQFRTLKAAVGVSVVIWAKELLTSIYFLMHEEVIEDENQHRVCFEHYPIQAWQRAINYYRFLVGFLFPICLLLASYQGILRAVRRSHGTQKSRKDQIQRLVLSTVVIFLACFLPYHVLLLVRSVWEASCDFAKGVFNAYHFSLLLTSFNCVADPVLYCFVSETTHRDLARLRGACLAFLTCSRTGRAREAYPLGAPEASGKSGAQGEEPELLTKLHPAFQTPNSPGSGGFPTGRLA

Tests used:
[1] = variants of: B1; assay: cAMP reporter score (Enrich2 score, wild type = 0); higher = more signal; HEK293T, FACS bins
[2] = variants of: B1; assay: surface expression score (Enrich2 score, wild type = 0); higher = more signal; HEK293T, FACS bins

Row | Variant | cAMP reporter score ([1]; pH 5.5) | cAMP reporter score ([1]; pH 6) | cAMP reporter score ([1]; pH 6, modulator: ogerin) | cAMP reporter score ([1]; pH 6.5, modulator: ogerin) | surface expression score [2]
1 | F277_N278insGS | -1.37 | -0.63 | -1.5 | -1.3 | -2.12
2 | MGNITADNSSMSCTIDHTIHQTLAPVVYVTVLVVGFPANCLSLYFGYLQIKARNELGVYLCNLTVADLFYICSLPFWLQYVLQHDNWSHGDLSCQVCGILLYENIYISVGFLCCISVDRYLAVAHPFRFHQFRTLKAAVGVSVVIWAKELLTSIYFLMHEEVIEDENQHRVCFEHYPIQAWQRAINYYRFLVGFLFPICLLLASYQGILRAVRRSHGTQKSRKDQIQRLVLSTVVIFLACFLPYHVLLLVRSVWEASCDFAKGVFNAYHFSLLLTSFACVADPVLYCFVSETTHRDLARLRGACLAFLTCSRTGRAREAYPLGAPEASGKSGAQGEEPELLTKLHPAFQTPNSPGSGGFPTGRLA [N278A] | -0.909 | -1.26 | -0.737 | -1.77 | 0.959
3 | MGNITADNSSMSCTIDHTIHQTLAPVVYVTVLVVGFPANCLSLYFGYLQIKARNELGVYLCNLTVADLFYICSLPFWLQYVLQHDNWSHGDLSCQVCGILLYENIYISVGFLCCISVDRYLAVAHPFRFHQFRTLKAAVGVSVVIWAKELLTSIYFLMHEEVIEDENQHRVCFEHYPIQAWQRAINYYRFLVGFLFPICLLLASYQGILRAVRRSHGTQKSRKDQIQRLVLSTVVIFLACFLPYHVLLLVRSVWEASCDFAKGVFNAYHFSLLLTSFCCVADPVLYCFVSETTHRDLARLRGACLAFLTCSRTGRAREAYPLGAPEASGKSGAQGEEPELLTKLHPAFQTPNSPGSGGFPTGRLA [N278C] | 0.369 | -0.484 | -0.888 | -0.635 | 1.39
4 | MGNITADNSSMSCTIDHTIHQTLAPVVYVTVLVVGFPANCLSLYFGYLQIKARNELGVYLCNLTVADLFYICSLPFWLQYVLQHDNWSHGDLSCQVCGILLYENIYISVGFLCCISVDRYLAVAHPFRFHQFRTLKAAVGVSVVIWAKELLTSIYFLMHEEVIEDENQHRVCFEHYPIQAWQRAINYYRFLVGFLFPICLLLASYQGILRAVRRSHGTQKSRKDQIQRLVLSTVVIFLACFLPYHVLLLVRSVWEASCDFAKGVFNAYHFSLLLTSFDCVADPVLYCFVSETTHRDLARLRGACLAFLTCSRTGRAREAYPLGAPEASGKSGAQGEEPELLTKLHPAFQTPNSPGSGGFPTGRLA [N278D] | -2.16 | -1.31 | -1.95 | -1.14 | -2.31
5 | MGNITADNSSMSCTIDHTIHQTLAPVVYVTVLVVGFPANCLSLYFGYLQIKARNELGVYLCNLTVADLFYICSLPFWLQYVLQHDNWSHGDLSCQVCGILLYENIYISVGFLCCISVDRYLAVAHPFRFHQFRTLKAAVGVSVVIWAKELLTSIYFLMHEEVIEDENQHRVCFEHYPIQAWQRAINYYRFLVGFLFPICLLLASYQGILRAVRRSHGTQKSRKDQIQRLVLSTVVIFLACFLPYHVLLLVRSVWEASCDFAKGVFNAYHFSLLLTSFECVADPVLYCFVSETTHRDLARLRGACLAFLTCSRTGRAREAYPLGAPEASGKSGAQGEEPELLTKLHPAFQTPNSPGSGGFPTGRLA [N278E] | -0.532 | -1.92 | -1.43 | -1.07 | –

Scores whose standard error is large were omitted. Two further conditions of the source, in which the scores hardly spread, are not listed. In variant names, del marks residues removed and ins residues inserted between the two positions. For part of these data: The data file names ogerin without a concentration.
